According to publication PMC9911399, “Two distinct binding modes provide the RNA-binding protein RbFox with extraordinary sequence specificity”:
Where a chain is given by its changes, count along the chain named. Some of the results follow.

B1: GCUAUCG (DNA:RNA)
RNA: GGGAGACCGGAAUUCAGAUUGUCCGCUAUCGUUAAAUCCCGUCGUAGCCACCA
DNA 1: CAATCTGAATTCCGGTCTCCC
DNA 2: TGGTGGCTACGACGGGATT
B2: UCCCCAG (DNA:RNA)
RNA: B1 RNA with G25U, U27C, A28C, U29C, C30A
DNA 1: CAATCTGAATTCCGGTCTCCC
DNA 2: TGGTGGCTACGACGGGATT
B3: GUAAUGU (DNA:RNA)
RNA: B1 RNA with C26U, U27A, C30G, G31U
DNA 1: CAATCTGAATTCCGGTCTCCC
DNA 2: TGGTGGCTACGACGGGATT
B4: UUUUAGG (DNA:RNA)
RNA: B1 RNA with G25U, C26U, A28U, U29A, C30G
DNA 1: CAATCTGAATTCCGGTCTCCC
DNA 2: TGGTGGCTACGACGGGATT
B5: UUUCUUU (DNA:RNA)
RNA: B1 RNA with G25U, C26U, A28C, C30U, G31U
DNA 1: CAATCTGAATTCCGGTCTCCC
DNA 2: TGGTGGCTACGACGGGATT
B6: GACUACA (DNA:RNA)
RNA: B1 RNA with C26A, U27C, A28U, U29A, G31A
DNA 1: CAATCTGAATTCCGGTCTCCC
DNA 2: TGGTGGCTACGACGGGATT
B7: AACCUGU (DNA:RNA)
RNA: B1 RNA with G25A, C26A, U27C, A28C, C30G, G31U
DNA 1: CAATCTGAATTCCGGTCTCCC
DNA 2: TGGTGGCTACGACGGGATT
B8: UUCAGUU (DNA:RNA)
RNA: B1 RNA with G25U, C26U, U27C, U29G, C30U, G31U
DNA 1: CAATCTGAATTCCGGTCTCCC
DNA 2: TGGTGGCTACGACGGGATT
B9: ACACCCC (DNA:RNA)
RNA: B1 RNA with G25A, U27A, A28C, U29C, G31C
DNA 1: CAATCTGAATTCCGGTCTCCC
DNA 2: TGGTGGCTACGACGGGATT
B10: ACUUUCU (DNA:RNA)
RNA: B1 RNA with G25A, A28U, G31U
DNA 1: CAATCTGAATTCCGGTCTCCC
DNA 2: TGGTGGCTACGACGGGATT
B11: AACGCGA (DNA:RNA)
RNA: GGGAGACCGGAAUUCAGAUUGUCCAACGCGAUUAAAUCCCGUCGUAGCCACCA
DNA 1: CAATCTGAATTCCGGTCTCCC
DNA 2: TGGTGGCTACGACGGGATT
B12: AGAAUGA (DNA:RNA)
RNA: B11 RNA with A26G, C27A, G28A, C29U
DNA 1: CAATCTGAATTCCGGTCTCCC
DNA 2: TGGTGGCTACGACGGGATT
B13: UGCCCUG (DNA:RNA)
RNA: B11 RNA with A25U, A26G, G28C, G30U, A31G
DNA 1: CAATCTGAATTCCGGTCTCCC
DNA 2: TGGTGGCTACGACGGGATT
B14: CCCUGCU (DNA:RNA)
RNA: B1 RNA with G25C, U27C, A28U, U29G, G31U
DNA 1: CAATCTGAATTCCGGTCTCCC
DNA 2: TGGTGGCTACGACGGGATT
B15: GUUCCAU (DNA:RNA)
RNA: B1 RNA with C26U, A28C, U29C, C30A, G31U
DNA 1: CAATCTGAATTCCGGTCTCCC
DNA 2: TGGTGGCTACGACGGGATT
B16: GGUGGCC (DNA:RNA)
RNA: B1 RNA with C26G, A28G, U29G, G31C
DNA 1: CAATCTGAATTCCGGTCTCCC
DNA 2: TGGTGGCTACGACGGGATT
B17: AGACACA (DNA:RNA)
RNA: B11 RNA with A26G, C27A, G28C, C29A, G30C
DNA 1: CAATCTGAATTCCGGTCTCCC
DNA 2: TGGTGGCTACGACGGGATT
B18: ACCAAGA (DNA:RNA)
RNA: B11 RNA with A26C, G28A, C29A
DNA 1: CAATCTGAATTCCGGTCTCCC
DNA 2: TGGTGGCTACGACGGGATT
B19: CAAAGCU (DNA:RNA)
RNA: B1 RNA with G25C, C26A, U27A, U29G, G31U
DNA 1: CAATCTGAATTCCGGTCTCCC
DNA 2: TGGTGGCTACGACGGGATT
B20: GUCGUUC (DNA:RNA)
RNA: B11 RNA with A25G, A26U, C29U, G30U, A31C
DNA 1: CAATCTGAATTCCGGTCTCCC
DNA 2: TGGTGGCTACGACGGGATT
B21: GGCUAGA (DNA:RNA)
RNA: B11 RNA with A25G, A26G, G28U, C29A
DNA 1: CAATCTGAATTCCGGTCTCCC
DNA 2: TGGTGGCTACGACGGGATT
B22: UCGUUGG (DNA:RNA)
RNA: B1 RNA with G25U, U27G, A28U, C30G
DNA 1: CAATCTGAATTCCGGTCTCCC
DNA 2: TGGTGGCTACGACGGGATT
B23: AUAAGUG (DNA:RNA)
RNA: B1 RNA with G25A, C26U, U27A, U29G, C30U
DNA 1: CAATCTGAATTCCGGTCTCCC
DNA 2: TGGTGGCTACGACGGGATT
B24: GUAGGGA (DNA:RNA)
RNA: B11 RNA with A25G, A26U, C27A, C29G
DNA 1: CAATCTGAATTCCGGTCTCCC
DNA 2: TGGTGGCTACGACGGGATT
B25: ACAGUUA (DNA:RNA)
RNA: B11 RNA with A26C, C27A, C29U, G30U
DNA 1: CAATCTGAATTCCGGTCTCCC
DNA 2: TGGTGGCTACGACGGGATT
B26: CGCACUC (DNA:RNA)
RNA: B11 RNA with A25C, A26G, G28A, G30U, A31C
DNA 1: CAATCTGAATTCCGGTCTCCC
DNA 2: TGGTGGCTACGACGGGATT
B27: CCAGGCG (DNA:RNA)
RNA: B1 RNA with G25C, U27A, A28G, U29G
DNA 1: CAATCTGAATTCCGGTCTCCC
DNA 2: TGGTGGCTACGACGGGATT
B28: UAUCCAA (DNA:RNA)
RNA: B11 RNA with A25U, C27U, G28C, G30A
DNA 1: CAATCTGAATTCCGGTCTCCC
DNA 2: TGGTGGCTACGACGGGATT
B29: ACAUAGG (DNA:RNA)
RNA: B11 RNA with A26C, C27A, G28U, C29A, A31G
DNA 1: CAATCTGAATTCCGGTCTCCC
DNA 2: TGGTGGCTACGACGGGATT
B30: UGUUUUA (DNA:RNA)
RNA: B1 RNA with G25U, C26G, A28U, C30U, G31A
DNA 1: CAATCTGAATTCCGGTCTCCC
DNA 2: TGGTGGCTACGACGGGATT
B31: AGAGAUU (DNA:RNA)
RNA: B11 RNA with A26G, C27A, C29A, G30U, A31U
DNA 1: CAATCTGAATTCCGGTCTCCC
DNA 2: TGGTGGCTACGACGGGATT

molecular target: T1, RBFOX1 RRM RbFoxmut (Fox-RRM*) (Homo sapiens, UniProt Q9NWB1 109-208, R118D;E147R;N151S;E152T); test: EMSA; HiTS-Eq, 1 nM pool, 10 min; buffer printed only for the single-RNA assays: 10 mM Tris pH 7.5, 150 mM NaCl, 3.4 mM EDTA, 0.001% NP-40, 30 C; details: tags: His6 N-terminal (pET28a); label: 5' 32P
T1 sequence: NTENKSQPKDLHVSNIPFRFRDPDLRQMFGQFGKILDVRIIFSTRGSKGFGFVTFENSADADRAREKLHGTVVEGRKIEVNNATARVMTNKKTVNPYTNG
Outline: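 These values rest on relative association constants, computed from read-count changes of each RNA species versus the control reaction and normalised to the cognate motif. Reads came from free RNA recovered by 8% native PAGE after purified RbFox RRM (wild type or mutant) at increasing concentrations was equilibrated for 10 min in 50 µL with 1 nM of a 5′-radiolabelled pool with 7 randomized nucleotides and DNA-annealed flanks.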

Binder	binding signal
B1	0.117 KA relative to UGCAUGU
B2	0.0984 KA relative to UGCAUGU
B3	0.154 KA relative to UGCAUGU
B4	0.0739 KA relative to UGCAUGU
B5	0.0817 KA relative to UGCAUGU
B6	0.0912 KA relative to UGCAUGU
B7	0.069 KA relative to UGCAUGU
B8	0.0816 KA relative to UGCAUGU
B9	0.0745 KA relative to UGCAUGU
B10	0.0605 KA relative to UGCAUGU
B11	0.0512 KA relative to UGCAUGU
B12	0.646 KA relative to UGCAUGU
B13	0.123 KA relative to UGCAUGU
B14	0.092 KA relative to UGCAUGU
B15	0.0957 KA relative to UGCAUGU
B16	0.19 KA relative to UGCAUGU

Binder	binding signal
B17	0.0613 KA relative to UGCAUGU
B18	0.0797 KA relative to UGCAUGU
B19	0.069 KA relative to UGCAUGU
B20	0.0878 KA relative to UGCAUGU
B21	0.0874 KA relative to UGCAUGU
B22	0.109 KA relative to UGCAUGU
B23	0.173 KA relative to UGCAUGU
B24	0.0673 KA relative to UGCAUGU
B25	0.122 KA relative to UGCAUGU
B26	0.075 KA relative to UGCAUGU
B27	0.106 KA relative to UGCAUGU
B28	0.0448 KA relative to UGCAUGU
B29	0.0939 KA relative to UGCAUGU
B30	0.115 KA relative to UGCAUGU
B31	0.088 KA relative to UGCAUGU
